# PubChem BioAssay AID652104 (National Center for Advancing Translational Sciences (NCATS), 2013)
# Among all 410,000 compounds or so, about 7,200 (1.8%) were called active. Inconclusive results, whose numbers are uncertain, are shown with a selection of clear calls. Calls come from the whole dose curve; as a rule, active = well fitted activation curve with a large enough effect; inconclusive = small, poorly fitted or top-dose-only effect, or another doubt; inactive = no such curve, though single readings can be large or run the other way. No potency is given beside an inconclusive call; the fits are too rough.
# Test: qHTS of TDP-43 Inhibitors; note: nearly all actives have a fitted effect of over 50% in size; for growth rescue (activation): % of control where 0% means no effect
# Conditions: TDP-43 expressing yeast growth rescue, BacTiter-Glo, 24 h; growth rescue (activation): at 46.1 µM (top of the series) unless noted
# In short: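 Galactose-induced TDP-43 yeast, OD600=0.02, compound pinned; 24 hr, 30 deg C; BacTiter-Glo luminescence for growth. Inhibitors of TDP-43 toxicity read as activators.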
# Potency is the fitted concentration of half-maximal effect; tags give direction and shape of the fitted curve.
Structure (SMILES),growth rescue (activation),Potency
CC(Oc1ccc(Br)cc1)C(=O)Nc1ccncc1 (centres undefined),inactive: 5.79% [at 9.22 µM],
O=C(COC(=O)Cc1ccsc1)Nc1cccc(Cl)c1,,"inconclusive [activator, partial curve]"
CC(C)CN(C(=O)COC(=O)c1ccc2c(c1)NC(=O)CS2)C1CCS(=O)(=O)C1 (centres undefined),inactive: 11.6%,
O=C(NCCCN1CCN(c2cccc(Cl)c2)CC1)c1nc(-c2ccncc2)no1,,"inconclusive [activator, partial curve, poor fit]"
N#CC(C#N)=C1C=C2C=C(N3CCCCCC3)CCC2CC1 (centres undefined),,"inconclusive [activator, partial curve, poor fit]"
O=C(Nc1ccc(OC(F)(F)F)cc1)C1CCCN(C(=O)c2ccc(Cl)cc2)C1 (centres undefined),,"inconclusive [activator, full curve, poor fit]"
CCCCN1C(=O)C(CC(=O)NCCCN(C)C)CC(C(=O)N2CCCCCC2)=C1C (centres undefined),inactive: 10.1%,
Cc1ccc(S(=O)(=O)N2[C@@H](c3ccccc3)C(C(=O)O)=CC[C@H]2c2cccc(Cl)c2)cc1,,active: 35.5 µM
O=C(C1CCCCC1)N(Cc1cccnc1)c1nc2c(F)cc(F)cc2s1,,"inconclusive [activator, full curve]"
Nc1c(C(=O)Nc2cccc(F)c2)sc2nc(-c3cccs3)ccc12,inactive: 9.12%,
COC(=O)[C@@]12CCCCN1[C@H](c1ccc(-c3ccc(OC)cc3)c(OC)c1)[C@@H]1C(=O)N(C)C(=O)[C@@H]12,,"inconclusive [activator, partial curve]"
Cc1ccc2nc(-c3ccccc3)cc(C(=O)N(C)CC(=O)Nc3ccccc3Br)c2c1,,"inconclusive [activator, single point]"
Brc1ccc(CSc2ccc3nnc(-c4cccnc4)n3n2)cc1,,active: 15.8 µM
CCOC(=O)c1ccc(NC(=O)c2ccc(OC(C)C)c(OC)c2)cc1,,"inconclusive [activator, partial curve]"
O=C(COC(=O)c1ccc(Br)o1)NCc1ccc(Cl)cc1,,"inconclusive [activator, full curve, poor fit]"
Cc1nc(CS(=O)(=O)c2ccccc2)cc(Sc2ccc(Cl)cc2Cl)n1,,active: 12.6 µM
COCc1cccc(-c2csc(C(O)c3ccc(F)c(F)c3)n2)c1 (centres undefined),,active: 20 µM
Cc1c(Cl)cccc1NC(=O)c1ccco1,,"inconclusive [activator, single point]"
Cc1ccc(NC(=O)C2(C)CCN2C(=O)C2CCCCC2)cc1C (centres undefined),,"inconclusive [activator, single point]"
